Test results from paper PMC12820563.
The list shows a part of the results. The list includes weakly bound sequences.

These sequences were tested against T1, MBP-FoxP3dN (UniProt Q99JB6) (assay: PD-seq (MBP pull-down with sequencing)). Conditions: 20 mM Tris-HCl pH 7.5, 100 mM NaCl, 1.5 mM MgCl2, 0.4 uM protein, 0.1 uM dsDNA library, 30 min, room temperature, amylose pull-down; high values mean tight binding; double strand, one strand shown.
T1 sequence: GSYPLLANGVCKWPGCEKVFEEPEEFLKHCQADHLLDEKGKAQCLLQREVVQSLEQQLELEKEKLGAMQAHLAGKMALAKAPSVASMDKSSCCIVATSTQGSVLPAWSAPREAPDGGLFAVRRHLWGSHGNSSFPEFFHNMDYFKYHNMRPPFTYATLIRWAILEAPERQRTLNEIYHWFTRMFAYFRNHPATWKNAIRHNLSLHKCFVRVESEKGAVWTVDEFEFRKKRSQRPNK

Sequence	binding signal (RPM ratio (pull-down/input))
GATGATTGTTCTCCCAGCTGATGAATTCACACCGTCGAGTAAACAAATTTTCCTAATCTTTCTGTTCAAGCGCCATCTAC	0.321
GATGATTGTTCTCCCAGCTGATGAATTAAAGTATTCGAGTAAACAAATTTTCCTAATCTTTCTGTTCAAGCGCCATCTAC	1.32
GATGATTGTTCTCCCAGCTGATGAATTGCGCCAATCGAGTAAACAAATTTTCCTAATCTTTCTGTTCAAGCGCCATCTAC	1.33
GATGATTGTTCTCCCAGCTGATGAATTAAAGTCCTCGAGTAAACAAATTTTCCTAATCTTTCTGTTCAAGCGCCATCTAC	0.289
GATGATTGTTCTCCCAGCTGATGAATTGCAGCTTTCGAGTAAACAAATTTTCCTAATCTTTCTGTTCAAGCGCCATCTAC	1.75
GATGATTGTTCTCCCAGCTGATGAATTGGACAGTTCGAGTAAACAAATTTTCCTAATCTTTCTGTTCAAGCGCCATCTAC	0.288
GATGATTGTTCTCCCAGCTGATGAATTATAAACGTCGAGTAAACAAATTTTCCTAATCTTTCTGTTCAAGCGCCATCTAC	0.55
GATGATTGTTCTCCCAGCTGATGAATTGCGAAGTTCGAGTAAACAAATTTTCCTAATCTTTCTGTTCAAGCGCCATCTAC	0.614
GATGATTGTTCTCCCAGCTGATGAATTACGGTTGTCGAGTAAACAAATTTTCCTAATCTTTCTGTTCAAGCGCCATCTAC	1.4
GATGATTGTTCTCCCAGCTGATGAATTCCAACTATCGAGTAAACAAATTTTCCTAATCTTTCTGTTCAAGCGCCATCTAC	0.47
GATGATTGTTCTCCCAGCTGATGAATTAGGACTTTCGAGTAAACAAATTTTCCTAATCTTTCTGTTCAAGCGCCATCTAC	1.03
GATGATTGTTCTCCCAGCTGATGAATTGATCCACTCGAGTAAACAAATTTTCCTAATCTTTCTGTTCAAGCGCCATCTAC	0.379
GATGATTGTTCTCCCAGCTGATGAATTCCGCTGTTCGAGTAAACAAATTTTCCTAATCTTTCTGTTCAAGCGCCATCTAC	1.28
GATGATTGTTCTCCCAGCTGATGAATTAATAATATCGAGTAAACAAATTTTCCTAATCTTTCTGTTCAAGCGCCATCTAC	0.762
GATGATTGTTCTCCCAGCTGATGAATTTGCTTCGTCGAGTAAACAAATTTTCCTAATCTTTCTGTTCAAGCGCCATCTAC	2.27
GATGATTGTTCTCCCAGCTGATGAATTCTCGGAGTCGAGTAAACAAATTTTCCTAATCTTTCTGTTCAAGCGCCATCTAC	0.176
GATGATTGTTCTCCCAGCTGATGAATTCGTCTACTCGAGTAAACAAATTTTCCTAATCTTTCTGTTCAAGCGCCATCTAC	1.2
GATGATTGTTCTCCCAGCTGATGAATTAACCGGATCGAGTAAACAAATTTTCCTAATCTTTCTGTTCAAGCGCCATCTAC	0.179
